# From PubChem BioAssay AID504333 (National Center for Advancing Translational Sciences (NCATS), 2011)
# The campaign covered roughly 360,000 compounds. About 16,000 (4.4%) were called active. The inconclusive results got no clear call from the source; some entries with a clear call stand among them for comparison. The call rests on the fitted dose curve; in most records, active means well fitted inhibition curve with a large enough effect; inconclusive means small, poorly fitted or top-dose-only effect; inactive means no such curve, though single readings can be large or run the other way. A potency beside an inconclusive call is a rough fit, not a confirmed value.
# Molecular target: Bromodomain adjacent to zinc finger domain protein 2B (Homo sapiens) (UniProt Q9UIF8)
# Assay: qHTS Assay for Inhibitors of BAZ2B; further: nearly all actives have a fitted effect of over 60% in size
# Details: AlphaScreen BAZ2B-H3K14Ac peptide displacement; activity change, negative = inhibition: at 114 µM (top of the series)
# Procedure, shortened: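 AlphaScreen displacement: compounds (up to 110uM) incubated 30 min at room temperature with a preformed 50 nM BAZ2B/50 nM biotinylated H3K14Ac peptide complex in PBS pH 7.4 with Tween-20. Donor and acceptor beads at 10 ug/mL final added, 20 min light-protected before reading.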
# On the % scale 0 is the no-effect control and ±100 the full control effect; potency means the concentration at half of the fitted maximal effect; tags describe the fitted curve by direction and shape.
# Chain of UniProt Q9UIF8 (Q9UIF8 whole entry, looked up, the tested form may be a part): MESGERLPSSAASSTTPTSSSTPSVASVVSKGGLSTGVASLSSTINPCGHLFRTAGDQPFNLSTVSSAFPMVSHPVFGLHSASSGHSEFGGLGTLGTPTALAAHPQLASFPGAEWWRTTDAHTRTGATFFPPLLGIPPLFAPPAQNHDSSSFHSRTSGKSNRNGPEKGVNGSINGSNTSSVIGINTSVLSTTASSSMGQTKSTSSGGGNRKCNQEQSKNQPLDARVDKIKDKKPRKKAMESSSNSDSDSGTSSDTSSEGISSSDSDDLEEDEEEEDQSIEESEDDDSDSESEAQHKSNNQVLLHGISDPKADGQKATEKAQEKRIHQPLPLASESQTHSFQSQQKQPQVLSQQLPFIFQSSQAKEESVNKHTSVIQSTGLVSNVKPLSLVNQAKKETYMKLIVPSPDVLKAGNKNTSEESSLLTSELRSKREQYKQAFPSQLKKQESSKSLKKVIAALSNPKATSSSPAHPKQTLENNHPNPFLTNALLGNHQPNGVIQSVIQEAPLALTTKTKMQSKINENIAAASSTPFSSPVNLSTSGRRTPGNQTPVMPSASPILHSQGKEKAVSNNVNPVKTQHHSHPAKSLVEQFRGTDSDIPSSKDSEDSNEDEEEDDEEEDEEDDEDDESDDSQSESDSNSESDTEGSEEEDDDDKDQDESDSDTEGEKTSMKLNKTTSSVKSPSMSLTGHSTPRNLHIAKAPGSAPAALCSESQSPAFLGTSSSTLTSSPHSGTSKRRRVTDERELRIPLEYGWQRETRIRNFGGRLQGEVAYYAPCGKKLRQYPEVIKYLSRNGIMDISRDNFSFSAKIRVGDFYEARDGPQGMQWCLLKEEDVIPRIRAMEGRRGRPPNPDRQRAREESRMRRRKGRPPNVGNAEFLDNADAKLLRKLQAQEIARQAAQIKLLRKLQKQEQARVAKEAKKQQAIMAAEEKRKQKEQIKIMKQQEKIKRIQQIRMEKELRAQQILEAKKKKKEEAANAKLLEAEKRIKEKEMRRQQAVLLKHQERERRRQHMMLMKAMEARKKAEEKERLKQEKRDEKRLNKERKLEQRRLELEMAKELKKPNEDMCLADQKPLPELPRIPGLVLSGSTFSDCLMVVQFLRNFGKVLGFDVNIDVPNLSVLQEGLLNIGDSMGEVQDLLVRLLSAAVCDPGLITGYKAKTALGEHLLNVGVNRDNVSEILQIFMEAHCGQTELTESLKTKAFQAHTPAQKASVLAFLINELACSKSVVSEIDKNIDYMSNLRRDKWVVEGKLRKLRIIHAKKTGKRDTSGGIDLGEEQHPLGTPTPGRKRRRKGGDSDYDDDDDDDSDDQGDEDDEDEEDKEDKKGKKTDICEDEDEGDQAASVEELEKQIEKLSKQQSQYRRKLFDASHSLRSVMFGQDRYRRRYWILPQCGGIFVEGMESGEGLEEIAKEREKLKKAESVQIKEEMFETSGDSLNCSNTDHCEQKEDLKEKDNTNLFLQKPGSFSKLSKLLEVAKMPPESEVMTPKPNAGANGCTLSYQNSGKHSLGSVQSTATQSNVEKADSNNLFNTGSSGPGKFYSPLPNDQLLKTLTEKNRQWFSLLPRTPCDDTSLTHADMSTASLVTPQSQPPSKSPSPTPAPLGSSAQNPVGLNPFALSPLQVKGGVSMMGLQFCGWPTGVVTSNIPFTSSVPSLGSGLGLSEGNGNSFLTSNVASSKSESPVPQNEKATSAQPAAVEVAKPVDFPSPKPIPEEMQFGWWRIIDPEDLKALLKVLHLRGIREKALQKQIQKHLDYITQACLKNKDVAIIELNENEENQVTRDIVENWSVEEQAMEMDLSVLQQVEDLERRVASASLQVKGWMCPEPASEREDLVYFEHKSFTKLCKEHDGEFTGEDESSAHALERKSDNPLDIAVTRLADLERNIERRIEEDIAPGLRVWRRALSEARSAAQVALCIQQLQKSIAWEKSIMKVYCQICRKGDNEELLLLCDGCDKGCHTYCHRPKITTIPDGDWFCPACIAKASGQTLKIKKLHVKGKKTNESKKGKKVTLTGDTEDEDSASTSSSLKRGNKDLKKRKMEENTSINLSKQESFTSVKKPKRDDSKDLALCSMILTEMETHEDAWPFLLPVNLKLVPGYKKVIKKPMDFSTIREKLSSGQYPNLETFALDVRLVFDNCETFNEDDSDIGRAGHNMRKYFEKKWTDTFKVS
SMILES,"activity change, negative = inhibition",Potency
O=C(/C=C/c1ccccc1Cl)N1CCC(c2nc3ccccc3o2)CC1,inactive: -6.62%,–
CC1=CC2=NC(=O)/C(=C\c3ccc(-c4cccc(Cl)c4)o3)C(=N)N2O1,inactive: 3.14%,–
CN(C)c1ccc(N2C(=NC(=O)C3CCCO3)SC3CS(=O)(=O)CC32)cc1 (stereo not drawn),–,"inconclusive: 50.1 µM [inhibitor, partial curve]"
Cc1cc(C)c2c(c1)NC(C(=O)O)C1CC=CC21 (stereo not drawn),–,active: 11.2 µM
Cc1ccc(NCc2ccccc2O)cc1,–,"inconclusive: 89.1 µM [inhibitor, single point]"
O=c1c2cccc(Cl)c2nc2n1Cc1ccccc1-2,–,"inconclusive: 79.4 µM [inhibitor, single point]"
Cn1c(-c2ccc(F)cc2)cnc1SCC(=O)Nc1ccccc1,–,"inconclusive: 22.4 µM [inhibitor, full curve]"
COc1cc(C(C2=C(O)CC(C)(C)CC2=O)C2C(=O)CC(C)(C)CC2=O)cc(OC)c1OC (stereo not drawn),–,"inconclusive: 89.1 µM [inhibitor, single point]"
O=C(Oc1nsnc1N1CCOCC1)c1ccccc1,inactive: -4.17%,–
O=[N+]([O-])c1cc(-c2cnc3ccccc3n2)ccc1Oc1ccc(Br)cc1,–,"inconclusive: 79.4 µM [inhibitor, partial curve]"
COc1cccc(N2CCN(Cc3nc(N)nc(Nc4ccccc4OC)n3)CC2)c1,–,active: 50.1 µM
Cc1ccc(C)c(NC(=O)CN(C)C(=O)[C@@H](NC(N)=O)C(C)C)c1,–,"inconclusive: 89.1 µM [inhibitor, single point]"
Cc1cc(C(=O)CSc2nnnn2C)c(C)n1-c1cccc(F)c1,–,"inconclusive: 79.4 µM [inhibitor, single point]"
Cc1occc1-c1nnc(SCC(=O)c2ccc3c(c2)OCCO3)n1CC1CCCO1 (stereo not drawn),inactive: -21.1%,–
COc1ccc(NC(=O)C(=O)N/N=C(\C)CC(=O)Nc2cc(C)ccn2)c(OC)c1,–,"inconclusive: 79.4 µM [inhibitor, partial curve]"
COc1cc(C(=O)NC(=S)NNC(=O)c2ccc3c(c2)OCO3)cc(OC)c1OC,inactive: -4.91%,–
COCCn1nnnc1C(C(C)C)N1CCC(Cc2ccccc2)CC1 (stereo not drawn),–,"inconclusive: 100 µM [inhibitor, single point]"
CC1=CCC2C(=O)N(c3nc4ccccc4n3C)C(=O)C2C1 (stereo not drawn),–,"inconclusive: 89.1 µM [inhibitor, single point]"
O=C(NCCCn1ccnc1)/C(=C\c1ccccc1Cl)NC(=O)c1ccccc1,–,"inconclusive: 3.55 µM [inhibitor, full curve, poor fit]"
Cn1c(SCc2ccc(Br)cc2)nnc1-c1ccccn1,–,active: 79.4 µM
O=C(N/N=C/c1cccn1-c1ccccc1)c1ccncc1,–,"inconclusive: 28.2 µM [inhibitor, partial curve]"
O=C(Nc1ccc(F)c(Cl)c1)c1ccc2c(c1)OCO2,–,"inconclusive: 89.1 µM [inhibitor, single point]"
COc1ccccc1C1/C(=C(/O)c2ccc(C)cc2)C(=O)C(=O)N1CCN1CCOCC1 (stereo not drawn),inactive: -4.36%,–
O=C(N/N=C/c1cccc(F)c1)c1cc(-c2ccco2)nc2ccccc12,–,active: 6.31 µM
COc1cc2cc3c(N)c(C(=O)Nc4sc(C)c(C)c4C#N)sc3nc2cc1OC,–,active: 56.2 µM

SMILES,"activity change, negative = inhibition",Potency
CCN(Cc1ccccc1)C(=O)Cn1c(=O)n(-c2ccccc2)c(=O)c2c1c1cc(C)ccc1n2C,–,"inconclusive: 89.1 µM [inhibitor, single point]"
CCc1nnc(NC(=O)c2csc3c2CCC(C)C3)s1 (stereo not drawn),inactive: -13.6%,–
CCNC(=S)N(CCc1c(C)[nH]c2ccc(OC)cc12)Cc1cccnc1,–,"inconclusive: 44.7 µM [inhibitor, partial curve]"
O=C(Nc1ccc(Cc2ccncc2)cc1)c1ccc(Cl)c([N+](=O)[O-])c1,–,"inconclusive: 39.8 µM [inhibitor, single point]"
COc1cccc(C(=O)NCc2n[nH]c(=S)n2-c2cccc(C)c2)c1,inactive: -20.5%,–
CCN1CCN(CC(=O)N2c3ccccc3Sc3ccccc32)CC1,inactive: -6.12%,–
c1coc(Cn2c(-c3ccco3)nc3ccccc32)c1,–,"inconclusive: 70.8 µM [inhibitor, single point]"
CNC(=O)[C@@]1(C)C=C[C@@H](Cc2ccccc2)N1C(=O)OC,inactive: -16.3%,–
CC(C)CC(=O)NC(=S)NNC(=O)c1ccc(NC(=O)C2CCCCC2)cc1,–,"inconclusive: 89.1 µM [inhibitor, single point]"
COc1ccc(-c2cnc(C)o2)cc1S(=O)(=O)Nc1ccc(NC(C)=O)cc1,inactive: -4.28%,–
COc1ccc(CN2C(=O)C(Cc3ccccc3)Nc3ncnc(N4CCCCC4)c32)cc1 (stereo not drawn),–,"inconclusive: 79.4 µM [inhibitor, single point]"
COC(=O)c1c(NC(=O)CN2C(=O)C(=O)N(C(C)C)C2=O)sc(C)c1C,inactive: -6.74%,–
COc1ccc(NC(=S)N/N=C/c2ccc(F)cc2)cc1OC,–,"inconclusive: 50.1 µM [inhibitor, partial curve]"
CCc1nn(CC(=O)N2CCN(c3ccc(OC)cc3)CC2)c(=O)c2cc3sccc3n12,–,"inconclusive: 89.1 µM [inhibitor, single point]"
CC1=NN(c2ccccc2)C(=O)/C1=C\c1ccc(Br)s1,–,active: 11.2 µM
CN(CCC#N)C(=O)COC(=O)c1ccc2[nH]c3c(c2c1)CCCC3,–,"inconclusive: 79.4 µM [inhibitor, single point]"
Cc1ccc(C(=O)CSc2nnc3c4ccccc4nc(C(C)(C)C)n23)cc1,–,"inconclusive: 89.1 µM [inhibitor, single point]"
COc1ccc(S(=O)(=O)N(C)CC(=O)NCCCn2ccnc2)cc1Cl,inactive: 1.04%,–
COc1ccc(-n2c(CNC(=O)c3cc(OC)c(OC)c(OC)c3)n[nH]c2=S)cc1,–,"inconclusive: 89.1 µM [inhibitor, single point]"
CCn1c(C)c(C(C)=O)c(N2CCN(c3cccc(Cl)c3)CC2)nc1=S,–,"inconclusive: 100 µM [inhibitor, single point]"
COc1ccc(/C=C(\NC(=O)c2ccc([N+](=O)[O-])cc2)C(=O)NCCCn2ccnc2)cc1,–,"inconclusive: 89.1 µM [inhibitor, single point]"
Cc1nc2ccc(N=NN(C)C)cc2[nH]1,inactive: -21.3%,–
CCOc1ccc(CN2CCN(Cc3cccn3-c3cccnc3)CC2CCO)cc1 (stereo not drawn),–,"inconclusive: 20 µM [inhibitor, full curve, poor fit]"
Cc1cc(OCCn2ccnc2)cc(C)c1Cl,–,"inconclusive: 89.1 µM [inhibitor, single point]"
COc1ccc(C2=NN(C(=O)CSc3nnc(C)n3C)C(c3ccco3)C2)cc1 (stereo not drawn),inactive: -5.43%,–

SMILES,"activity change, negative = inhibition",Potency
Cc1ccc(S(=O)(=O)Cn2nnnc2C(C(C)C)N2CCc3ccccc3C2)cc1 (stereo not drawn),–,"inconclusive: 89.1 µM [inhibitor, single point]"
O=C1C=C(c2cccc(Cl)c2O)C[C@@H](c2ccc(Cl)cc2)C1,–,"inconclusive: 89.1 µM [inhibitor, single point]"
Oc1nc(Nc2ccc(Cl)cc2Cl)sc1/C=C1\C=Nc2ccccc21,–,"inconclusive: 39.8 µM [inhibitor, partial curve]"
Cc1ccc(CNC(=O)CNS(=O)(=O)c2ccc(Br)s2)cc1,inactive: 2.78%,–
CCCOc1ccc(N)cc1N,–,active: 28.2 µM
COCCn1c(C)cc(C(=O)COC(=O)c2ccc([N+](=O)[O-])o2)c1C,–,active: 44.7 µM
COC(=O)C(NC(C)=O)(Nc1nc2c(s1)CCCC2)C(F)(F)F (stereo not drawn),–,active: 56.2 µM
COc1ccccc1C(=O)Nc1ccc(C(=O)OCc2cc(=O)n3nc(C)sc3n2)cc1,inactive: -3.76%,–
Cc1ccc(-c2nn3c(C)nnc3c3ccccc23)cc1S(=O)(=O)NCc1ccco1,–,"inconclusive: 79.4 µM [inhibitor, single point]"
Cc1ccc(S(=O)(=O)N2Cc3ccccc3CC2C(=O)Nc2ccc3c(c2)OCO3)cc1 (stereo not drawn),–,"inconclusive: 89.1 µM [inhibitor, single point]"
Cc1csc2nc(-c3ccc(NS(=O)(=O)c4cc(F)ccc4F)cc3)cn12,–,"inconclusive: 44.7 µM [inhibitor, partial curve]"
c1ccc(COc2cccc(CNCc3cccnc3)c2)cc1,–,active: 50.1 µM
O=C(Nc1cccc(-c2cscn2)c1)C1CCN(Cc2ccccn2)CC1,–,"inconclusive: 89.1 µM [inhibitor, single point]"
CCNC(=S)NN=C1CCC(C(C)(C)C)CC1 (stereo not drawn),–,active: 79.4 µM
CCOc1cc(NC(=S)NCC2CCCO2)c(OCC)cc1NC(=O)c1cccc(F)c1 (stereo not drawn),–,"inconclusive: 35.5 µM [inhibitor, partial curve]"
O=C(CO/N=C/c1cccc([N+](=O)[O-])c1)Nc1ccc2ccccc2c1,–,"inconclusive: 89.1 µM [inhibitor, single point]"
COc1cccc(C(=O)COc2ccc(NC(=O)c3ccccc3)cc2)c1,inactive: -3.31%,–
COc1ccc(O)c(C(=O)c2cc(C(=O)NCCc3ccccc3)c(=O)n(CCc3ccccc3)c2)c1,–,"inconclusive: 50.1 µM [inhibitor, partial curve]"
COc1ccc(S(=O)(=O)N2CCNCC2)cc1,inactive: 14%,–
Cc1ccc(-c2ccc(/C=N/NC(=O)CN3CCOCC3)o2)cc1[N+](=O)[O-],–,"inconclusive: 79.4 µM [inhibitor, single point]"
Cc1noc(C)c1Cc1ccc(O)cc1,inactive: -5.26%,–
Cc1ccc(S(=O)(=O)Oc2ccc3ccc(O)cc3c2)cc1,–,"inconclusive: 50.1 µM [inhibitor, partial curve]"
COc1ccccc1NC(=O)Nc1nn(C)c2cccc(N(C)C)c12,–,"inconclusive: 50.1 µM [inhibitor, partial curve]"
